Source: paper PMC4336329 (PLoS ONE, 2015)
The whole screen tested about 310,000 compounds, of which about 14,000 (4.5%) showed an effect of 50% or more. Effects have a minus sign here. The list shows a part of the results.

The molecules below were run against human ether-à-go-go-related gene (hERG) potassium channel (human, UniProt Q12809) (assay: primary screen, population patch clamp on CHO cells stably expressing hERG).
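Also: peak tail current of the secondary pulse compared with the same well before compound.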

human ether-à-go-go-related gene (hERG) potassium channel, sequence (Q12809 whole entry, looked up): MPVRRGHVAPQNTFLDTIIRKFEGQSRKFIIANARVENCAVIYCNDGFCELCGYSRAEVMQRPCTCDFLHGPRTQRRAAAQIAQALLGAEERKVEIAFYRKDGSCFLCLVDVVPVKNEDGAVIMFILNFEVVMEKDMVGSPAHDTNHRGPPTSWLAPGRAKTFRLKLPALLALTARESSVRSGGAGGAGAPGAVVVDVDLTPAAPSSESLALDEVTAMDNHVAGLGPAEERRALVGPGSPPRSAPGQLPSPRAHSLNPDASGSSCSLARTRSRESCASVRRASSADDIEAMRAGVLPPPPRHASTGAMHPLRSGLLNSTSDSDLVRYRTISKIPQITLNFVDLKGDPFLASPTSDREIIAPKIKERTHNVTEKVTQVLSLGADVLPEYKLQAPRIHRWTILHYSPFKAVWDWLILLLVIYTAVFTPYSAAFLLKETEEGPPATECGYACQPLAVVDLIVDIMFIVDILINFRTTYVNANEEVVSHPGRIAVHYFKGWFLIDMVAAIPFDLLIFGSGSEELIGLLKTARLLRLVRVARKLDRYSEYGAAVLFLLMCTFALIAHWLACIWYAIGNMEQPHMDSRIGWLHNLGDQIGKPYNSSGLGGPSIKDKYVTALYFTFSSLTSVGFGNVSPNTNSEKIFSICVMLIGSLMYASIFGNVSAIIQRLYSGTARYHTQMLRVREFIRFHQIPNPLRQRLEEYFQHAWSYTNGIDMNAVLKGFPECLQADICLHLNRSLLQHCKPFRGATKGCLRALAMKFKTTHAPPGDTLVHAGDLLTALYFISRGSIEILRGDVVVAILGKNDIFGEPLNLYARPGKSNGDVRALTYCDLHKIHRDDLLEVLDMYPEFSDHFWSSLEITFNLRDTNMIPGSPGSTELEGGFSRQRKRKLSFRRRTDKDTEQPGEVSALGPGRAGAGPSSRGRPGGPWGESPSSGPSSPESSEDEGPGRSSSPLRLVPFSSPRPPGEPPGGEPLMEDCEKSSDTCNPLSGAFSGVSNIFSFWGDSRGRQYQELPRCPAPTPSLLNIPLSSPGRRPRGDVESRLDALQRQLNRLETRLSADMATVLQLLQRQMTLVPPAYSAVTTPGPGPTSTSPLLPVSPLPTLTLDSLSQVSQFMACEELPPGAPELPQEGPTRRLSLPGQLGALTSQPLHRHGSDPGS

Going from CCCNC(=O)NCCc1ccncc1 to CCCNC(=O)NCCc1c(C)[nH]c2ccccc12, the “hERG current change (%, negative = inhibition) at 10uM” value falls from 7.09% to 1.52%.

First: O=S(=O)(NC1CCCCC1)c1ccc(-c2csnn2)s1
Second: Cc1ccc(C(=O)OCC(=O)NC2CCCCC2)cc1S(=O)(=O)N1CCCCC1
The “hERG current change (%, negative = inhibition) at 10uM” value of the first is lower: -4.29% for the first, 8.86% for the second.

Compared with O=C(Nc1ccc(N2CCOCC2)cc1)C1CCN(S(=O)(=O)Cc2ccccc2)CC1, CN(C(=O)c1ccc(OC2CCN(CCc3ccccc3)CC2)cc1)C1CCOCC1 is lower in “hERG current change (%, negative = inhibition) at 10uM” value: 19.2% for the first, -9.93% for the second.

Going from CCOC(=O)c1ccccc1NC(=O)COC(=O)CN1C(=O)NC2(CCCC2)C1=O to COc1ccccc1C(=O)NC(=O)COC(=O)Cn1[nH]c(=O)c2ccccc2c1=O, the “hERG current change (%, negative = inhibition) at 10uM” value rises from -26.6% to 9.29%.

First: CC(=O)OC(COc1ccccc1)Cn1cnc2ccccc21 (centres unmarked)
Second: N/C(=N\OC(=O)COc1ccccc1)c1ccc(Cl)cc1
The “hERG current change (%, negative = inhibition) at 10uM” value of the first is lower: -6.26% for the first, 2.9% for the second.

Compared with CCN(C(=O)CCc1nnc2ccc(N3CCC4(CC3)OCCO4)nn12)c1ccccc1, CCCc1ccc(NC(=O)C2CCCN(c3cnccn3)C2)cc1 (centres unmarked) is lower in “hERG current change (%, negative = inhibition) at 10uM” value: 10.3% for the first, -32% for the second.

Going from Clc1ccc(CCC(Cn2ccnc2)Sc2c(Cl)cccc2Cl)cc1.O=[N+]([O-])O (centres unmarked) to O=S(=O)(c1ccc(Cl)cc1)N1CCn2c1nc1ccccc12, the “hERG current change (%, negative = inhibition) at 10uM” value falls from -9.6% to -11.3%.

Compared with COc1cc(N)c(Cc2nccc3cc(OC)c(OC)cc23)cc1OC, COc1ccccc1CN1CCC(CNS(=O)(=O)c2cc(-c3cc(C)no3)ccc2OC)CC1 is lower in “hERG current change (%, negative = inhibition) at 10uM” value: -4.16% for the first, -58.2% for the second.

First: O=C(Nc1cccc([N+](=O)[O-])c1)c1ccc2c(c1)OCO2
Second: C/C(=N\NC(=O)c1cccnc1)c1c(O)cc(C)oc1=O
The “hERG current change (%, negative = inhibition) at 10uM” value of the first is higher: 2.11% for the first, -1.71% for the second.

Compared with Cc1cc(C)c2cc3c(N)c(C(=O)N4CCc5ccccc5C4)sc3nc2c1, Cc1nc(CCNC(=O)CC2C(=O)NCCN2Cc2ccccc2F)sc1C (centres unmarked) is higher in “hERG current change (%, negative = inhibition) at 10uM” value: 14.9% for the first, 17.9% for the second.

Going from O=c1[nH]c(N2CCN(c3ccccc3)CC2)nc2c1CCCC2 to Cc1ccc(C)c(N2CCN(S(=O)(=O)c3ccc4c(c3)NC(=O)CS4)CC2)c1, the “hERG current change (%, negative = inhibition) at 10uM” value falls from 2.28% to 1.02%.

Compared with COc1ccc(N(Cc2cc3ccccc3[nH]c2=O)S(=O)(=O)c2ccccc2)cc1, COc1ccc(CCN2CN(S(=O)(=O)c3ccccc3)c3nc4ccccc4nc32)cc1 is lower in “hERG current change (%, negative = inhibition) at 10uM” value: 2.91% for the first, -30.9% for the second.

Going from CCN(CC)c1ccc(-c2nnc(SCC(=O)N(CCOC)c3c(N)n(CC(C)C)c(=O)[nH]c3=O)o2)cc1 to CC(C)Cn1c(N)c(C(=O)COC(=O)c2ccc(O)cc2)c(=O)n(C)c1=O, the “hERG current change (%, negative = inhibition) at 10uM” value falls from -1.45% to -10.6%.

Compared with CC(C)CN1C(=O)C(=O)N(CC(=O)N(C)CC(=O)Nc2ccc(F)cc2)C1=O, CCOc1ccc(NC(=O)N2CCC(n3c(=O)[nH]c4ccccc43)CC2)cc1 is lower in “hERG current change (%, negative = inhibition) at 10uM” value: -5.4% for the first, -16.9% for the second.

Compared with CCC1=C(OC(=O)N(CC)CC)N2C(=O)OC(=NCCOC)[C@]2(Cc2ccccc2)[C@H]2C1=CC[C@H]1C(=O)N(C)C(=O)[C@H]12, CCN(C(=O)COC(=O)c1cc(-c2ccccc2)nn1-c1ccccc1)C1CCS(=O)(=O)C1 (centres unmarked) is lower in “hERG current change (%, negative = inhibition) at 10uM” value: -9.54% for the first, -12.8% for the second.

First: CS(=O)(=O)N(CC(=O)N1CCCC1)c1ccc(Cl)cc1Cl
Second: CCN(CC(=O)NC1CCS(=O)(=O)C1)S(=O)(=O)c1ccc(C)c(C)c1 (centres unmarked)
The “hERG current change (%, negative = inhibition) at 10uM” value of the first is higher: 9.71% for the first, 2.78% for the second.

Compared with CCOC(=O)C1=C(C)OC(N)=C(C(=O)OCC)C1c1ccncc1 (centres unmarked), COc1ccc(C2=NOC(C(=O)NCC(C)C)C2)cc1 (centres unmarked) is higher in “hERG current change (%, negative = inhibition) at 10uM” value: -14.9% for the first, -5.43% for the second.

Going from O=C(CC(NC(=O)OCc1ccccc1)C(=O)O)OCc1ccccc1 (centres unmarked) to Cc1ccccc1OCC(O)Cn1c2ccccc2c2ccccc21 (centres unmarked), the “hERG current change (%, negative = inhibition) at 10uM” value falls from 4.67% to 2.67%.

Going from C(=N\Nc1nc(N2CCOCC2)nc(N2CCOCC2)n1)/c1ccco1 to O=C(CSc1nnc(CN2CCCCCC2=O)n1-c1ccccn1)NCC(F)(F)F, the “hERG current change (%, negative = inhibition) at 10uM” value falls from 30.2% to -4.29%.

Compared with CN1CCN(c2cn[nH]c(=O)c2Cl)CC1, CC1CCN(CCCCOc2ccccc2F)CC1.O=C(O)C(=O)O is lower in “hERG current change (%, negative = inhibition) at 10uM” value: 15.4% for the first, -13.3% for the second.

Compared with COc1ccc(NC(=O)NCc2ccccn2)cc1, CC1=C(C(=O)c2ccccc2)C(c2ccc(OC(F)F)cc2)NC(=S)N1 (centres unmarked) is lower in “hERG current change (%, negative = inhibition) at 10uM” value: 8.78% for the first, -17.1% for the second.

Going from CSc1nc(S(=O)(=O)c2ccc(C)cc2)c(Cl)s1 to CC[N+]1(CC)CC2=Cc3c(ccc4ccccc34)CC2C1.[Br-] (centres unmarked), the “hERG current change (%, negative = inhibition) at 10uM” value falls from -3% to -15.1%.
